From patent publication US20200024319A1 (Amgen, published 2020)

T1: CD25 (IL-2Rα) on the surface of T cells (human, UniProt P01589 22-272)
T1 construct: whole, on cells; also called cell surface CD25
T1 sequence (looked up): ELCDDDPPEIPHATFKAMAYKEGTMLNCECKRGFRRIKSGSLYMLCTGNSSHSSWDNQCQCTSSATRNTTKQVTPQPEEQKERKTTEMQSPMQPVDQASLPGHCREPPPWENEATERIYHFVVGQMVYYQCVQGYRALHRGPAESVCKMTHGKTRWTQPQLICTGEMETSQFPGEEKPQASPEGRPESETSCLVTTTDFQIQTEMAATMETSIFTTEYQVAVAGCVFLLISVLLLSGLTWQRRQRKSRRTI

B1: Fc.WT IgG1Fc(N297G_delK)::G4S::huIL-2(C125A) (Fc fusion)
chain: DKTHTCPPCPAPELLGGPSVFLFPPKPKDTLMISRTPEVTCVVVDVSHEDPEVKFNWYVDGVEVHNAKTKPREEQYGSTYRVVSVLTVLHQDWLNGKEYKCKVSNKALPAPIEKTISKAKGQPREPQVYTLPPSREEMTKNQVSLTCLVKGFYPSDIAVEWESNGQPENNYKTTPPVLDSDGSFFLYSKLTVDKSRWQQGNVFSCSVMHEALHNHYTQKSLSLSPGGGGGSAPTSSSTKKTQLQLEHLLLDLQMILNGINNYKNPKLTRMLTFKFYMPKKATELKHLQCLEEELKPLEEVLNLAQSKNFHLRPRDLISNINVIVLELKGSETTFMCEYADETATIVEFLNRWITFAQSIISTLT
notes: Fc homodimer with two IL-2 domains; also called Fc.WT IL-2; Fc.IL-2(WT, C125A)
B2: Fc.N88D (or Fc.IL-2(N88D)) IgG1Fc(N297G_delK)::G4S::huIL-2(N88D, C125A) (Fc fusion)
chain: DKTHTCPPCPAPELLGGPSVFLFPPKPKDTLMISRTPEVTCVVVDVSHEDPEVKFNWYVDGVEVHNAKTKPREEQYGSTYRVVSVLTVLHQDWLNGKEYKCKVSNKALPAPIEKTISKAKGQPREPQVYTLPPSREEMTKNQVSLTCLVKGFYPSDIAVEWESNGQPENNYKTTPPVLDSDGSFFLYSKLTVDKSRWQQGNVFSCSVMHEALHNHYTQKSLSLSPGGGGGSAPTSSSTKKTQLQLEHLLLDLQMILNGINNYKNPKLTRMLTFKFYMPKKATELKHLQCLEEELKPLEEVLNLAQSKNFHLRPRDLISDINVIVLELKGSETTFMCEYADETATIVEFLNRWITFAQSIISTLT
notes: Fc homodimer with two IL-2 mutein domains
B3: Fc.V91K (or Fc.IL-2(V91K)) IgG1Fc(N297G_delK)::G4S::huIL-2(V91K, C125A) (Fc fusion)
chain: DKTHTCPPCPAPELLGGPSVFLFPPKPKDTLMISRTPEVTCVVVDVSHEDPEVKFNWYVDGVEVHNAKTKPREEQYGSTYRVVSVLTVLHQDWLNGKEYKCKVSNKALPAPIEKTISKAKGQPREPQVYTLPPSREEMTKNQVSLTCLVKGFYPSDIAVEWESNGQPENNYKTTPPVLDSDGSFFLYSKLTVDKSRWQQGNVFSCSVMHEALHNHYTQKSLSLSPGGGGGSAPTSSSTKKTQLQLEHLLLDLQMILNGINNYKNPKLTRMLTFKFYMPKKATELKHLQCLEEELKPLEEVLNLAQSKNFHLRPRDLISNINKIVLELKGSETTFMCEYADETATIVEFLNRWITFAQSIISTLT
notes: as for B2

What follows are binders tested against T1, CD25 (IL-2Rα) on the surface of T cells (assay: flow cytometry, CD3+ CD4+ gate: OKT3-prestimulated PBMC pulsed with 400 pM Fc.IL-2 for 30 min at 37 C, washed and cultured for four hours; anti-human IgG-FITC against anti-CD25-APC).

Cell surface Fc.IL-2 (% of CD3+ CD4+ cells in the gate), 4 hours [%] | Binder
3.93 | B1
16.2 | B2
17 | B3

What follows are binders tested against T1, CD25 (IL-2Rα) on the surface of T cells (assay: flow cytometry, CD3+ CD4+ gate: OKT3-prestimulated PBMC pulsed with 400 pM Fc.IL-2 for 30 min at 37 C, harvested after one wash (T0); anti-human IgG-FITC against anti-CD25-APC).

Cell surface Fc.IL-2 (% of CD3+ CD4+ cells in the gate), T0 [%] | Binder
23.6 | B1
29.1 | B2
37.6 | B3
